Test results: patent US7592316B2, “Peptides as NS3-serine protease inhibitors of hepatitis C virus” (Schering Corporation, priority 2000, dated 2009)

Target: HCV NS3/NS4A protease (strain 1a) (Hepatitis C virus genotype 1a, UniProt P27958)
Test: biochemical
Settings: Compounds prepared by Solid Phase Synthesis, Table 3; read-out: Ki* CLASS

Row | SMILES | Ki [µM]
1 | CCCC(NC(=O)[C@@H]1C[C@@H](OCc2ccccc2)CN1C(=O)C(NC(=O)CC1CCCCC1)C1CCCCC1)C(=O)C(=O)NCC(=O)NC(C(N)=O)c1ccccc1 (some centres unmarked) [drawing 335] (Cyclohexylacetyl-[ξChg][Hyp](Bn)[X2]G[ξPhg]-NH2) | 0.101 to 1

Same assay, conditions: HCV protease continuous assay results, Table 1; read-out: Ki* Range

Row | SMILES | Ki [µM]
2 | CCCC(NC(=O)[C@@H]1C[C@@H](Oc2cc(-c3ccccc3)nc3cc(OC)ccc23)CN1C(=O)[C@@H](NC(=O)OC(C)(C)C)C(C)C)C(=O)C(=O)OC(C)(C)C (some centres unmarked) [Example 338] | > 1
3 | C=CCC(NC(=O)[C@@H]1[C@@H]2[C@H](CN1C(=O)C(NC(=O)OC(C)(C)C)C(C)(C)C)C2(C)C)C(=O)C(=O)NCC(=O)N[C@H](C(=O)N(C)C)c1ccccc1 (stereo partly drawn) [Example 339] (Boc-[ξTle][Pro(3R,4S-CMe2)][ξ(3-Amino-2-oxohex-5-enoyl)]G[Phg]-NMe2) | 0.001 to 0.1
4 | CCCC(NC(=O)[C@@H]1C[C@@H](Oc2cc(-c3ccccc3)nc3cc(OC)ccc23)CN1C(=O)[C@@H](N)C(C)C)C(=O)C(=O)O (some centres unmarked) [Example 340] | > 1
5 | CCCCC(NC(=O)[C@@H]1C[C@@H](OC(C)(C)C)CN1C(=O)[C@@H](NC(=O)OCC(C)C)C(C)(C)C)C(=O)C(=O)NCC(=O)N[C@H](CN)c1ccccc1 (some centres unmarked) [Example 341] | > 1
6 | C=CCCC(NC(=O)[C@@H]1C[C@@H](OC(C)(C)C)CN1C(=O)[C@@H](NC(=O)OCC(C)C)C(C)(C)C)C(=O)C(=O)O (some centres unmarked) [Example 342] | > 1
7 | CCCC(NC(=O)[C@@H]1CC(OC(=O)C(C)(C)C)CN1C(=O)C(NC(=O)OC(C)(C)C)C(C)(C)C)C(=O)C(=O)NCC(=O)NC(C(=O)N(C)C)c1ccccc1 (some centres unmarked) [Example 343] | 0.001 to 0.1
8 | CC[C@@H](C)CC(NC(=O)[C@@H]1C[C@@H](OC(C)(C)C)CN1C(=O)C(NC(=O)OCC(C)C)C(C)(C)C)C(=O)C(=O)NCC(=O)N[C@@H](c1ccccc1)[C@H](C)O (some centres unmarked) [Example 344] | > 1
9 | CC[C@@H](C)C(NC(=O)[C@@H]1C[C@@H](OC(C)(C)C)CN1C(=O)C(NC(=O)OCC(C)C)C(C)(C)C)C(=O)C(=O)NCC(=O)N[C@@H](c1ccccc1)[C@H](C)O (some centres unmarked) [Example 345] | > 1
10 | CC[C@@H](C)C(NC(=O)[C@@H]1C[C@@H](OC(C)(C)C)CN1C(=O)[C@@H](NC(=O)OCC(C)C)C(C)(C)C)C(=O)C(=O)NCC(=O)N[C@@H](c1ccccc1)[C@@H](C)O (some centres unmarked) [Example 346] | > 1
11 | C=CCCC(NC(=O)[C@@H]1[C@@H]2[C@H](CN1C(=O)[C@@H](NC(=O)OC(C)(C)C)C(C)(C)C)C2(C)C)C(=O)C(=O)NCC=C (some centres unmarked) [Example 347] | 0.101 to 1
12 | C=CCCC(NC(=O)[C@@H]1[C@@H]2[C@H](CN1C(=O)[C@@H](NC(=O)OC(C)(C)C)C(C)(C)C)C2(C)C)C(=O)C(=O)NCCC(=O)OCC (some centres unmarked) [Example 348] | 0.101 to 1
13 | C=CCCC(NC(=O)[C@@H]1[C@@H]2[C@H](CN1C(=O)[C@@H](NC(=O)OC(C)(C)C)C(C)(C)C)C2(C)C)C(=O)C(=O)NCCC(=O)O (some centres unmarked) [Example 349] | > 1
14 | CCCCC(NC(=O)[C@@H]1[C@@H]2[C@H](CN1C(=O)[C@@H](NC(=O)OC(C)(C)C)C(C)(C)C)C2(C)C)C(=O)C(=O)NC(C)(C)C (some centres unmarked) [Example 350] | > 1
15 | C=CCCC(NC(=O)[C@@H]1[C@@H]2[C@H](CN1C(=O)[C@@H](NC(=O)OC(C)(C)C)C(C)(C)C)C2(C)C)C(=O)C(=O)NC1CC1 (some centres unmarked) [Example 351] | > 1
16 | C=CCCC(NC(=O)[C@@H]1[C@@H]2[C@H](CN1C(=O)[C@@H](NC(=O)OC(C)(C)C)C(C)(C)C)C2(C)C)C(=O)C(=O)NCC1CC1 (some centres unmarked) [Example 352] | > 1
17 | C=CCCC(NC(=O)[C@@H]1[C@@H]2[C@H](CN1C(=O)[C@@H](NC(=O)OC(C)(C)C)C(C)(C)C)C2(C)C)C(=O)C(=O)NCCc1ccccc1OC (some centres unmarked) [Example 353] | > 1
18 | C=CCCC(NC(=O)[C@@H]1[C@@H]2[C@H](CN1C(=O)[C@@H](NC(=O)OC(C)(C)C)C(C)(C)C)C2(C)C)C(=O)C(=O)NCCC (some centres unmarked) [Example 354] | > 1
19 | C=CCCC(NC(=O)[C@@H]1[C@@H]2[C@H](CN1C(=O)[C@@H](NC(=O)OC(C)(C)C)C(C)(C)C)C2(C)C)C(=O)C(=O)N1CC=CCC1 (some centres unmarked) [Example 355] | > 1
20 | CCCC(NC(=O)[C@@H]1[C@@H]2[C@H](CN1C(=O)[C@@H](NC(=O)OC(C)(C)C)C(C)(C)C)C2(C)C)C(=O)C(=O)N[C@@H](C)C(=O)NC(C(=O)N(C)C)c1ccccc1 (stereo partly drawn) [Example 357] (Boc-[Tle][Pro(3R,4S-CMe2)][X2]A[ξPhg]-NMe2) | 0.001 to 0.1
21 | CCCC(NC(=O)[C@@H]1[C@@H]2[C@H](CN1C(=O)[C@@H](NC(=O)OC(C)(C)C)C(C)(C)C)C2(C)C)C(=O)C(=O)N[C@@H](C)C(=O)OC (some centres unmarked) [Example 358] | > 1
22 | C=CCC(NC(=O)[C@@H]1[C@@H]2[C@H](CN1C(=O)[C@@H](NC(=O)OC(C)(C)C)C(C)(C)C)C2(C)C)C(=O)C(=O)NCC(=O)NCc1ccccc1 (some centres unmarked) [Example 359] | 0.001 to 0.1
23 | CCCCC(NC(=O)[C@@H]1[C@@H]2[C@H](CN1C(=O)[C@@H](NC(=O)OC(C)(C)C)C(C)(C)C)C2(C)C)C(=O)C(=O)NOC (some centres unmarked) [Example 360] | 0.101 to 1

*1 amine or outer side, *2 acyl side, *3 side chain or, on linkers, in order; H or OH if unused. Where a SMILES comes first, the peptide text is derived from it. [ ]: non-standard residue; d: D form. The star is where a group is joined. ξ: configuration not given here. ξ(3-Amino-2-oxohex-5-enoyl) = C=CCC(N[*:1])C(=O)C(=O)[*:2]; Pro(3R,4S-CMe2) = CC1(C)[C@@H]2[C@@H](C(=O)O)NC[C@@H]21; Cyclohexylacetyl = O=C(CC1CCCCC1)*; Hyp = O=C(O)[C@@H]1C[C@@H](O)CN1; X2 = CCCC(N[*:1])C(=O)C(=O)[*:2]; Phg = N[C@H](C(=O)O)c1ccccc1; Tle = CC(C)(C)[C@H](N)C(=O)O; ξChg = NC(C(=O)O)C1CCCCC1; ξPhg = NC(C(=O)O)c1ccccc1; ξTle = CC(C)(C)C(N)C(=O)O; Boc = CC(C)(C)OC(=O)*; Bn = c1ccc(C*)cc1
